Results as given in PubChem BioAssay AID1645882 (National Center for Advancing Translational Sciences (NCATS), 2021).
Hit rate of the full screen: of about 16,000 compounds, about 120 (0.75%) were called active. Inconclusive results (about 4%) are left out. Calls follow the shape of the dose curve; as a rule, active = well fitted inhibition curve with a large enough effect; inconclusive = small, poorly fitted or top-dose-only effect; inactive = no such curve, though single readings can be large or run the other way. Some of the results follow.

biological target: Rap guanine nucleotide exchange factor 3 (Homo sapiens) (UniProt O95398); experiment: Validation qHTS for antagonist of cAMP-regulated guanine nucleotide exchange factor 3 (EPAC1); details: EPAC1 Rap1B-BODIPY-GDP exchange, fluorescence; series mostly up to 150 µM; activity change, negative = inhibition: at the top concentration; also: nearly all actives have a fitted effect of over 75% in size
Outline: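 EPAC1 (100 nM) mixed with 250 nM RAP1B-BODIPY-GDP and 50 uM GDP; compounds in concentration series, 5 min at room temperature. Fluorescence (ex 480/em 540 nm) read every 5 min for 30 min; normalized to ATA control and DMSO.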

UniProt O95398, sequence (O95398 whole entry, looked up): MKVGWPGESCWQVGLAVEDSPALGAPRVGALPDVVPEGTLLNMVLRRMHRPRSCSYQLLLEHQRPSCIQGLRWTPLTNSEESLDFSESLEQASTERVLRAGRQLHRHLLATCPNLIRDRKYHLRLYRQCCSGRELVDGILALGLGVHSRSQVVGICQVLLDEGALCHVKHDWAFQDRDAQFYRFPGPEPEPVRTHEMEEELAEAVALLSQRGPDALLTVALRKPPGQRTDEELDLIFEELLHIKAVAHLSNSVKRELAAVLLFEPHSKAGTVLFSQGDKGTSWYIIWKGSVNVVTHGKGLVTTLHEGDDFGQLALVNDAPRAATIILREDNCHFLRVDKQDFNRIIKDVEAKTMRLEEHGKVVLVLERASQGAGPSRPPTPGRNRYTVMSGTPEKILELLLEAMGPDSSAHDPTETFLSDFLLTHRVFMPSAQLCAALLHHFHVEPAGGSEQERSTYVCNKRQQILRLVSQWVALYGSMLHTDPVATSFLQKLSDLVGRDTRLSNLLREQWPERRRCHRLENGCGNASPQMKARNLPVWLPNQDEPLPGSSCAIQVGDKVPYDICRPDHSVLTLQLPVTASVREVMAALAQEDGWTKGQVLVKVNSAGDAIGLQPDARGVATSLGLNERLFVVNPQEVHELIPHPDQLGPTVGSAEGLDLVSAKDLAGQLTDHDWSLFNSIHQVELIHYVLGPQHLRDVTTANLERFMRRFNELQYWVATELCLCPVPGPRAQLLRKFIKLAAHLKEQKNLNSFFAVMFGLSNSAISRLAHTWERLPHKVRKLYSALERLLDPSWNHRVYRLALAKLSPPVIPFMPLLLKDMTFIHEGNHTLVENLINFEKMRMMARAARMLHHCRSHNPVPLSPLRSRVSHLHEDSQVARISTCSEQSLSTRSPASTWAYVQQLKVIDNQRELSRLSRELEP

Activity change, negative = inhibition, inactive:
COc1cc(-c2noc(C)c2-c2ccc(N(C)C)nc2)cc(OC)c1OC -5.82%
CN(Cc1ccco1)c1nc(-c2ccccc2C(F)(F)F)nc2ccccc12 -17.7%
COc1ccccc1-c1ccc2ncnc(NCCN3CCOCC3)c2c1 3.47%
COc1ccc(OC)c(-c2cc(Cl)c3c(c2)CC(CNC(=O)[C@@H]2CCCN2C(C)=O)O3)c1 (stereo not given in full) 16.9%
Cc1ccccc1C1(CC(=O)N2CCOCC2)CC(=O)N(Cc2cccnc2)C1=O (stereo not given) 12%
O=C(O)C[C@H]1c2cc(C(F)(F)F)ccc2S(=O)(=O)N1C1CCCCC1 -11.6%
COc1cc(C(C)=O)ccc1OCCCN1CCC(c2noc3cc(F)ccc23)CC1 -1.17%
CCOC(=O)[C@H](CCc1ccccc1)N[C@H]1CCCN2CCC[C@@H](C(=O)O)N2C1=O 33.8%
CCCC1O[C@@H]2C[C@H]3[C@@H]4CCC5=CC(=O)C=C[C@]5(C)[C@H]4[C@@H](O)C[C@]3(C)[C@]2(C(=O)CO)O1 (stereo not given in full)
NCCC1CCCC(CCN)N1 (stereo not given) -4.74% [at 75.8 µM]
CCS(=O)(=O)Nc1cc(C(=O)N2CCC[C@H]2CO)c2c(c1)nc(-c1ccccc1)n2C 9.25%
c1ccc(-c2ccc(N3CC[C@@]4(CCCNC4)C3)cc2)cc1 -14.8%
Cc1cc(COC(=O)C2N3C(=O)[C@@H](NC(=O)COc4ccccc4)[C@H]3SC2(C)C)on1 (stereo not given in full) -2.62%
COc1cc(-c2nc(C)cnc2C)cc2c1OCCN(C(=O)Cc1cc(OC)c(OC)c(OC)c1)C2 28.2%
CC[C@H]1C(=O)[C@@H](Cc2ccccc2)[C@@H]2CCN3C(=O)CCC[C@H]1[C@H]23 -15%
CN1CCCCCC1C(=O)NCC1Cc2cc(-c3cnccn3)ccc2O1 (stereo not given) 11.4%
COC(=O)c1c(C)[nH]c(C)c1C(=O)c1ccccc1Cc1ccccc1
Cc1ccc(CN2C[C@H](Sc3ccccn3)C[C@H]2C(=O)Nc2ccc3sc(C)nc3c2)s1 12.8%
CC(C)CN1CCC2(CC1)CCN(C(=O)c1ccco1)CC2 16.5%
CN(CCO)C(=O)c1cn(C2CCN(Cc3cccc(C(F)(F)F)c3)CC2)nn1 11.4%
Cc1ccc2oc(-c3ccccc3)c(O)c(=O)c2c1 4.29%
O=C(c1ccco1)N(Cc1cc2cc3c(cc2nc1N1CCOCC1)CCC3)CC1CCCO1 (stereo not given) -0.969%
C=C[C@@H]1c2ccccc2N(S(=O)(=O)c2ccc(C)cc2)[C@H](c2ccccc2C(F)(F)F)C1(C#N)C#N -16.5%
COc1ccc(NC(=O)N2CCCC3(CCN(C(=O)c4ccco4)CC3)C2)cc1 14.3%
COc1cc(C(O)CO)ccc1OS(=O)(=O)O (stereo not given) -4.2% [at 75.8 µM]
Cc1noc(C)c1-c1nccc(NCc2ccccc2)n1 -5.26%
Cc1cc(-c2ccnc(-n3ncc(C(=O)NCc4cccnc4)c3C3CC3)n2)c(C)s1 14.2%
C[C@H](CCC(=O)NCC(=O)O)C1CC[C@H]2[C@H]3C(C[C@H](O)[C@]12C)[C@@]1(C)CC[C@@H](O)C[C@H]1C[C@H]3O (stereo not given in full) 22.3%
CC(=O)Nc1ccccc1C(=O)C(=O)O 12.2%
Fc1ccc([C@H]2CCNCC2COc2ccc3c(c2)OCO3)cc1 (stereo not given in full) 3.4%
Cc1ccnc2c(O)cccc12 25.5%
O=C(Nc1ccccc1)N[C@H]1C[C@H](C(=O)O)Nc2cc(Cl)cc(Cl)c21 10.4%
O=C1c2c(O)ccc(O)c2C(=O)c2c(NCCNCCO)ccc(NCCNCCO)c21
COc1cc(CN2C(=O)CC[C@@H]3CN(Cc4ccccn4)CC[C@@H]32)cc(OC)c1OC 0.0038%
Cc1[nH]c2ccccc2c1/C=C/c1ccc2ccccc2n1 1.66%
N#Cc1cccc(NC(=O)N2CCC3(CC2)CCN(C(=O)c2csnn2)CC3)c1 13%
COCCn1c(=O)c(-c2ccccc2)nc2cnc(N3CCNCC3)nc21 13.9%
CC(C(=O)O)c1ccc(C2CCCCC2)c2ccccc12 (stereo not given) 28.7%
CC(=O)O[C@H]1C[C@@H]2CC[C@@H]3[C@H](CC[C@@]4(C)[C@H]3C[C@H]([N+]3(C)CCCCC3)[C@@H]4OC(C)=O)[C@@]2(C)C[C@@H]1[N+]1(C)CCCCC1
Cc1noc(C)c1C(=O)N1CCC2(CCCN(c3ccccn3)C2)CC1 1.18%
COCC(=O)N1CCC[C@@]2(CCN(Cc3ccccc3OC)C2)C1 3.59%
CN(C)c1ncc2ncc(=O)n(C[C@H]3CCCO3)c2n1 0.28%
COc1cc(O)c(C(=O)O)c(O)c1 19.4%
O=C(NCCc1nnc2n1CCN(Cc1c(F)cccc1F)CC2)c1ccco1 7.46%
CC(=O)[C@H]1CC[C@H]2[C@@H]3C=CC4=CC(=O)CC[C@@]4(C)[C@H]3CC[C@]12C 4.08% [at 75.8 µM]
CCOC(=O)C1=C(C)NC(C)=C(C(=O)OC)C1c1cccc(Cl)c1Cl (stereo not given)
COCc1c(C(=O)NC2CCCCCC2)cnn1-c1nccc(-c2cc(C)sc2C)n1 -10.8%
C[C@H](CCC(=O)O)[C@H]1CC[C@H]2[C@@H]3C(=O)C[C@@H]4CC(=O)CC[C@]4(C)[C@H]3CC(=O)[C@]12C 10.4%
COc1cccc(Nc2ncc3nc(CCc4ccccc4)c(=O)n(C)c3n2)c1 27.7%
Cc1nc2sccn2c(=O)c1CCN1CCC(=C(c2ccc(F)cc2)c2ccc(F)cc2)CC1
CO[C@H]1C[C@H](O[C@@H]2/C(C)=C/C[C@@H]3C[C@@H](C[C@]4(CC[C@H](C)[C@@H](C5CCCCC5)O4)O3)OC(=O)[C@@H]3C=C(C)/C(=N/O)[C@H]4OC/C(=C\C=C\[C@@H]2C)[C@]43O)O[C@@H](C)[C@@H]1O -2.21%
Cc1cnc(CNc2ncnc3ccc(-c4c(C)noc4C)cc23)cn1 7.59%
COCCNc1ncnc2ccc(-c3ccccc3OC)cc12 25.3%
OC[C@H]1O[C@H](n2cnc3c(N[C@H]4CCC[C@@H]4O)ncnc32)[C@H](O)[C@@H]1O 20.1% [at 75.8 µM]
COc1ccc(NC(=O)N2CCCC3(CCN(C(=O)c4cccc(F)c4)CC3)C2)cc1 12.8%
CC(C)(C)NC[C@H](O)COc1cccc2c1CCCC2=O 13.3% [at 75.8 µM]
CCNc1ncc2nc(-c3ccc(Cl)cc3)c(=O)n(-c3ccccc3)c2n1 20.1%
C[N+](C)(C)CCOC(N)=O
COc1ccc(OC)c(CN2CCC3(CCC(CNC(=O)c4ccco4)O3)CC2)c1 (stereo not given) 13.7%
CN1[C@@H]2CC(OC(=O)[C@H](CO)c3ccccc3)C[C@@H]1[C@H]1O[C@H]12 (stereo not given in full) 13.2%
